# Test results from the supplement of paper PMC10037445.
# In all, about 2,900 compounds were measured (“IRF Lucia reporter activity, fold change vs agonist alone”: median about 0.9, highest 2% from about 2.8 on). The list shows a part of the results.
# Tests used:
# RAW-Dual [1] = experiment: IRF Lucia reporter activity, fold change vs agonist alone; higher = enhanced IRF activity; details: cytotoxicity flag (confluency mask): not cytotoxic, agonist: MPLA (TLR4) […]
# Summary of the method: (§1)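 Reporter activity is given as fold change relative to agonist-alone wells. To measure it, 50 nL of library stock was pin-tooled onto RAW-Dual macrophages (50,000 cells/well, DMEM, 384-well plates), a PRR agonist followed 1 h later, and cells stayed at 37 °C, 5% CO2. Twenty hours on, supernatant was assayed for IRF (QuantiLuc luminescence) and NF-κB (QuantiBlue, 620 nm absorbance), and wells under 70% of agonist-control IncuCyte confluency in both mask sets were marked cytotoxic.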
# RAW-Dual [2] = experiment: IRF Lucia reporter activity, fold change vs agonist alone; cytotoxicity flag (confluency mask): not cytotoxic; higher = enhanced IRF activity
# Summary of the method: as §1
# RAW-Dual [3] = experiment: IRF Lucia reporter activity, fold change vs agonist alone; cytotoxicity flag (confluency mask): cytotoxic (confluency <70% of control); higher = enhanced IRF activity
# Summary of the method: as §1
# [4] = library stock concentration (final ~1000-fold dilution): 10 mM
# [5] = agonist: 3'3'-cGAMP (STING) 10 ug/mL
compound,measurement,setting,value
c1cc2c(cc1C1OCC3C(c4ccc5c(c4)OCO5)OCC13)OCO2 (centres undefined),IRF Lucia reporter activity,RAW-Dual [1]; [4],0.972
c1cc2c(cc1C1OCC3C(c4ccc5c(c4)OCO5)OCC13)OCO2 (centres undefined) (library stock concentration (final ~1000-fold dilution): 10 mM),IRF Lucia reporter activity,RAW-Dual [2]; [5],0.953
same,IRF Lucia reporter activity,RAW-Dual [2]; agonist: LPS (TLR4) 0.1 ug/mL,0.811
CCC1(O)C(=O)OCc2c1cc1n(c2=O)Cc2cc3ccccc3nc2-1 (centres undefined) (library stock concentration (final ~1000-fold dilution): 2 mM),IRF Lucia reporter activity,RAW-Dual [2]; [5],1.91
same,IRF Lucia reporter activity,RAW-Dual [2]; agonist: LPS (TLR4) 0.1 ug/mL,2.77
CCC1(O)C(=O)OCc2c1cc1n(c2=O)Cc2cc3ccccc3nc2-1 (centres undefined),IRF Lucia reporter activity,RAW-Dual [1]; library stock concentration (final ~1000-fold dilution): 2 mM,1.65
CCC1(c2cccc(O)c2)CCCCN(C)C1.Cl (centres undefined) (library stock concentration (final ~1000-fold dilution): 10 mM),IRF Lucia reporter activity,RAW-Dual [2]; [5],0.976
same,IRF Lucia reporter activity,RAW-Dual [2]; agonist: LPS (TLR4) 0.1 ug/mL,0.972
CCC1(c2cccc(O)c2)CCCCN(C)C1.Cl (centres undefined),IRF Lucia reporter activity,RAW-Dual [1]; [4],1
C=CC1CN2CCC3(C(=O)Nc4ccccc43)C2CC1/C(=C\OC)C(=O)OC (centres undefined) (library stock concentration (final ~1000-fold dilution): 10 mM),IRF Lucia reporter activity,RAW-Dual [2]; [5],1.1
same,IRF Lucia reporter activity,RAW-Dual [2]; agonist: LPS (TLR4) 0.1 ug/mL,0.887
c1ccc2c(c1)[I+]c1ccccc1-2 (library stock concentration (final ~1000-fold dilution): 10 mM),IRF Lucia reporter activity,RAW-Dual [2]; [5],0.573
same,IRF Lucia reporter activity,RAW-Dual [2]; agonist: LPS (TLR4) 0.1 ug/mL,1.97
same,IRF Lucia reporter activity,RAW-Dual [3]; [5],0.184
same,IRF Lucia reporter activity,RAW-Dual [3]; agonist: LPS (TLR4) 0.1 ug/mL,0.265
CCC1=CC2CN3CCc4c([nH]c5ccccc45)C(C(=O)OC)(C2)C13 (centres undefined) (library stock concentration (final ~1000-fold dilution): 10 mM),IRF Lucia reporter activity,RAW-Dual [2]; [5],0.847
same,IRF Lucia reporter activity,RAW-Dual [2]; agonist: LPS (TLR4) 0.1 ug/mL,1.1
CCC1=CC2CN3CCc4c([nH]c5ccccc45)C(C(=O)OC)(C2)C13 (centres undefined),IRF Lucia reporter activity,RAW-Dual [1]; [4],1.1
Cl.N=C(N)NN,IRF Lucia reporter activity,RAW-Dual [1]; [4],0.954
Cl.N=C(N)NN (library stock concentration (final ~1000-fold dilution): 10 mM),IRF Lucia reporter activity,RAW-Dual [2]; [5],1.02
same,IRF Lucia reporter activity,RAW-Dual [2]; agonist: LPS (TLR4) 0.1 ug/mL,1.41
CCC1(c2ccc(N)cc2)CCC(=O)NC1=O (centres undefined),IRF Lucia reporter activity,RAW-Dual [1]; [4],0.959
CCC1(c2ccc(N)cc2)CCC(=O)NC1=O (centres undefined) (library stock concentration (final ~1000-fold dilution): 10 mM),IRF Lucia reporter activity,RAW-Dual [2]; [5],1.05
same,IRF Lucia reporter activity,RAW-Dual [2]; agonist: LPS (TLR4) 0.1 ug/mL,0.98
CCC12C=CCN3CCC4(c5ccc(OC)cc5N(C)C4C(O)(C(=O)OC)C1OC(C)=O)C32 (centres undefined) (library stock concentration (final ~1000-fold dilution): 10 mM),IRF Lucia reporter activity,RAW-Dual [2]; [5],0.891
same,IRF Lucia reporter activity,RAW-Dual [2]; agonist: LPS (TLR4) 0.1 ug/mL,1.25
CCC12C=CCN3CCC4(c5ccc(OC)cc5N(C)C4C(O)(C(=O)OC)C1OC(C)=O)C32 (centres undefined),IRF Lucia reporter activity,RAW-Dual [1]; [4],1.06
Br.NCCc1cc(O)c(O)cc1O,IRF Lucia reporter activity,RAW-Dual [1]; [4],0.982
Br.NCCc1cc(O)c(O)cc1O (library stock concentration (final ~1000-fold dilution): 10 mM),IRF Lucia reporter activity,RAW-Dual [2]; [5],0.589
same,IRF Lucia reporter activity,RAW-Dual [2]; agonist: LPS (TLR4) 0.1 ug/mL,1.21
Cl.NCCc1ccc(S(=O)(=O)F)cc1,IRF Lucia reporter activity,RAW-Dual [1]; [4],1.36
Cl.NCCc1ccc(S(=O)(=O)F)cc1 (library stock concentration (final ~1000-fold dilution): 10 mM),IRF Lucia reporter activity,RAW-Dual [2]; [5],0.879
same,IRF Lucia reporter activity,RAW-Dual [2]; agonist: LPS (TLR4) 0.1 ug/mL,1.15
COc1ccc(O)c(C(C)(C)C)c1 (library stock concentration (final ~1000-fold dilution): 10 mM),IRF Lucia reporter activity,RAW-Dual [2]; [5],0.973
same,IRF Lucia reporter activity,RAW-Dual [2]; agonist: LPS (TLR4) 0.1 ug/mL,1.09
COc1ccc2c3c([nH]c2c1)C(C)=NCC3 (library stock concentration (final ~1000-fold dilution): 10 mM),IRF Lucia reporter activity,RAW-Dual [2]; [5],0.828
same,IRF Lucia reporter activity,RAW-Dual [2]; agonist: LPS (TLR4) 0.1 ug/mL,0.947
COc1ccc2c3c([nH]c2c1)C(C)=NCC3,IRF Lucia reporter activity,RAW-Dual [1]; [4],0.921
CCC(C)C(NC(=O)C(C(C)CC)N(C)C(C)=O)C(=O)NC(=O)C(NC(CC(C)C)C(=O)C1(C)CO1)C(C)O (centres undefined),IRF Lucia reporter activity,RAW-Dual [1]; [4],2.09
CCC(C)C(NC(=O)C(C(C)CC)N(C)C(C)=O)C(=O)NC(=O)C(NC(CC(C)C)C(=O)C1(C)CO1)C(C)O (centres undefined) (library stock concentration (final ~1000-fold dilution): 10 mM),IRF Lucia reporter activity,RAW-Dual [2]; [5],1.55
same,IRF Lucia reporter activity,RAW-Dual [2]; agonist: LPS (TLR4) 0.1 ug/mL,4.46
O=C(Oc1ccc([N+](=O)[O-])cc1)N1CCC(C(O)(c2ccc3c(c2)OCO3)c2ccc3c(c2)OCO3)CC1 (library stock concentration (final ~1000-fold dilution): 10 mM),IRF Lucia reporter activity,RAW-Dual [2]; [5],1.02
same,IRF Lucia reporter activity,RAW-Dual [2]; agonist: LPS (TLR4) 0.1 ug/mL,1.11
O=C(Oc1ccc([N+](=O)[O-])cc1)N1CCC(C(O)(c2ccc3c(c2)OCO3)c2ccc3c(c2)OCO3)CC1,IRF Lucia reporter activity,RAW-Dual [1]; [4],1.04
CC1CCC2C(C)C3CCC4C(CC5C4CC(O)C4CC(O)CCC45C)C3CN2C1 (centres undefined) (library stock concentration (final ~1000-fold dilution): 10 mM),IRF Lucia reporter activity,RAW-Dual [2]; [5],0.906
same,IRF Lucia reporter activity,RAW-Dual [2]; agonist: LPS (TLR4) 0.1 ug/mL,1.22
CN1CCc2cc3c(cc2C1C1OC(=O)c2c1ccc1c2OCO1)OCO3 (centres undefined) (library stock concentration (final ~1000-fold dilution): 10 mM),IRF Lucia reporter activity,RAW-Dual [2]; [5],1.07
same,IRF Lucia reporter activity,RAW-Dual [2]; agonist: LPS (TLR4) 0.1 ug/mL,1.06
CN1CCc2cc3c(cc2C1C1OC(=O)c2c1ccc1c2OCO1)OCO3 (centres undefined),IRF Lucia reporter activity,RAW-Dual [1]; [4],1.15
